# Test results as given in article PMC4336329 (PLoS ONE, 2015).
# In all, about 310,000 compounds went through this assay and about 2,200 (0.71%) showed an effect of 50% or more. The effect is printed as a negative number. Some of the results follow.
# Biological target: human ether-à-go-go-related gene (hERG) potassium channel (human, UniProt Q12809)
# Experiment: primary screen, population patch clamp on CHO cells stably expressing hERG
# Sequence of human ether-à-go-go-related gene (hERG) potassium channel (Q12809 whole entry, looked up): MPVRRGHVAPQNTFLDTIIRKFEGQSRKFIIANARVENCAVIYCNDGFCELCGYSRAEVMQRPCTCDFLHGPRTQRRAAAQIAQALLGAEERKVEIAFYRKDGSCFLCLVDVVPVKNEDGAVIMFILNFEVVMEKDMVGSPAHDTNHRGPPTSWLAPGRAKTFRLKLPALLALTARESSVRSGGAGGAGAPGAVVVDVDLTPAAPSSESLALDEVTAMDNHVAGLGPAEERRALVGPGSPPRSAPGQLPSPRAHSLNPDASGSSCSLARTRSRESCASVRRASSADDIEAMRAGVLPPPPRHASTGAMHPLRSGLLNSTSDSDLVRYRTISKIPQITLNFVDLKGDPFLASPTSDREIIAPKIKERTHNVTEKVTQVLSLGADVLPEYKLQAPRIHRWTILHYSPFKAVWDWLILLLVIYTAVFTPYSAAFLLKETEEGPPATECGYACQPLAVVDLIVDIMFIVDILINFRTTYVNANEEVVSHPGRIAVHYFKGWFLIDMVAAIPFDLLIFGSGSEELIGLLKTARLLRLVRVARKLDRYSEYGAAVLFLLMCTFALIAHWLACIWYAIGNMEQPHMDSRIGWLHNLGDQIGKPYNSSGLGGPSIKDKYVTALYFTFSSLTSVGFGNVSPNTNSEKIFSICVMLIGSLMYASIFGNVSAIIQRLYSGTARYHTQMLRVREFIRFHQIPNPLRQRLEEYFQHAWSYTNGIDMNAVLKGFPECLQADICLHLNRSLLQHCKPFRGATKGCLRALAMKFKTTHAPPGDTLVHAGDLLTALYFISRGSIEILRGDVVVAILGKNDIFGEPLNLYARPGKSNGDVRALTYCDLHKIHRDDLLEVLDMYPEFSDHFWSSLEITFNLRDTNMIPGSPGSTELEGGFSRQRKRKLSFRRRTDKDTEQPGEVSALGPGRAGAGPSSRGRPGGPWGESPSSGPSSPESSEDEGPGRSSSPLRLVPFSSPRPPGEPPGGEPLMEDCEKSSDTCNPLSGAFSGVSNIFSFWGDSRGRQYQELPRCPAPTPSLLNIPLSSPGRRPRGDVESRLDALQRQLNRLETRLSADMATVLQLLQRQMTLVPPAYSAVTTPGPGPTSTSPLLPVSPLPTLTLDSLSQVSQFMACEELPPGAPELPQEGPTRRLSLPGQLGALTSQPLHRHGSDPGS
row,SMILES,"hERG current change (%, negative = inhibition) at 1uM"
1,COc1cc(=O)[nH]c(SC(C)C(=O)Nc2ccc3ccccc3c2)n1 (stereo not drawn),20%
2,O=C(CCN1C(=O)c2ccccc2C1=O)N1CCC(c2ccccc2)C1 (stereo not drawn),11.2%
3,COc1ccc(S(=O)(=O)N2CCCCCC2)cc1C(=O)NC1(C)CCS(=O)(=O)C1 (stereo not drawn),-6.08%
4,COc1cccc(NC(=O)CN(C)C(=O)COc2ccc3ccccc3c2)c1,3.89%
5,COc1ccc(NC(=O)Cc2cccc(F)c2)cc1S(=O)(=O)Nc1ccccc1Cl,10.5%
6,Cc1ccc(S(=O)(=O)N2CCC(C(=O)N3Cc4ccccc4C3)CC2)cc1,1.89%
7,CC(NC(=O)Cc1cccc2ccccc12)C(=O)N1CCC(=O)CC1 (stereo not drawn),14.1%
8,CC(C)(CNC(=O)c1cccc(S(=O)(=O)NCc2ccccc2)c1)N1CCOCC1,12.1%
9,COc1ccc(-c2nnc(SCc3csc(N)n3)n2C)cc1,-1.87%
10,CSC1=NC2(CCCCC2)C2=C(CCCC2)N1,5.84%
11,CCOC(=O)c1cc2c(ccn2-c2ccc(F)cc2)n1CC(=O)NC(C)(C)C,8.29%
12,CCOC(=O)COc1ccccc1/C=N/O,1.3%
13,COc1cccc(/C=C/C(=O)Nc2ccc3nc4n(c(=O)c3c2)CCCC4)c1OC,15.9%
14,Cc1onc(-c2ccccc2)c1C(=O)N/N=C/c1ccc(O)c([N+](=O)[O-])c1,5.98%
15,COc1ccc(S(=O)(=O)N2CCC(O)(c3ccc4c(c3)OCO4)CC2)cc1,-1.77%
16,CCOc1ccc2c(c1)C(C)=CC(C)(C)N2C(=O)Nc1ccccc1,13.2%
17,O=C(C1COc2ccccc2O1)N1CCc2ccccc2C1 (stereo not drawn),7.08%
18,Cc1nc2ccccc2n2c(-c3ccccc3)c3c(=O)n(C)c(=O)n(C)c3c12,9.9%
19,Clc1cccc(CSc2ccc(-c3cccnc3)nn2)c1,-2.96%
20,C=CCc1c(C)c(C#N)c2nc3ccccc3n2c1NCCN(C)C,4.14%
21,CC(=O)O[C@H]1CC[C@@]2(C)[C@H](C1)C(=O)C[C@H]1[C@@H]3CC[C@@H]4[C@@H](CN5C[C@@H](C)CC[C@H]5[C@@]4(C)O)[C@@H]3C[C@@H]12,3.12%
22,O=C(CN(C(=O)CCC(=O)Nc1nccs1)c1ccc2c(c1)OCO2)NCc1ccc(F)cc1,9.89%

row,SMILES,"hERG current change (%, negative = inhibition) at 1uM"
1,CCCCNC(NCCCC)=C(S(=O)(=O)CC)S(=O)(=O)CC,7.6%
2,COc1ccc([N+](=O)[O-])cc1NC(=O)C(C)OC(=O)CC1CCCC1 (stereo not drawn),3.47%
3,O=C(O)CC(NC(=O)Cc1ccccc1)c1cc([N+](=O)[O-])ccc1Cl (stereo not drawn),13.7%
4,CCO[C@@H]1OC(C(=O)NC2CC2)=C[C@H](C(C)(C)C)[C@H]1CCCO,13.7%
5,COc1ccc(OCC(=O)N2CCN(Cc3ccc4c(c3)OCO4)CC2)cc1,6.71%
6,CCOc1ccc(Br)cc1S(=O)(=O)Nc1nc(CN2CCOCC2)nc2sc(C)c(C)c12,10.7%
7,O=C(NC1CC1)C1CC(=O)N(c2cccc(Cl)c2)C1 (stereo not drawn),5.03%
8,COc1ccc(-c2nc(CS(=O)CC(=O)NCc3ccccc3)c(C)o2)cc1OC (stereo not drawn),4.9%
9,CC(C)(C)NC(=O)COC(=O)CCC(=O)c1ccc(Cl)cc1,7.79%
10,O=C(Nc1ccccc1F)c1ccco1,15.2%
11,CCCCNC(=O)CSc1nc2ccccc2n1S(=O)(=O)c1ccc(Cl)cc1,9.92%
12,O=C(CCNC(=O)c1ccc(Br)cc1)NCC1CCCO1 (stereo not drawn),5.9%
13,O=C(Nc1ccnn1C1CCN(C2CCC2)CC1)c1ccccc1,16.6%
14,NC(N)=NN=C1c2ccccc2-c2ccccc21,14.4%
15,COc1ccc(CNC(=O)CCCn2c(=S)[nH]c3cc4c(cc3c2=O)OCO4)cc1,11.5%
16,Cc1cccc([N+](=O)[O-])c1NC(=O)CN(Cc1ccccc1)Cc1ccccc1,-4.3%
17,CN(N=Nc1ccc([N+](=O)[O-])cc1)c1ccccc1,11.5%
18,CC(=O)c1cc2c(O)c(O)ccc2o1,11.8%
19,Cc1ccc(C(=O)Nc2ccncc2)o1,5.98%
20,Cc1ccc(C(=O)COC(=O)c2ccncc2)cc1[N+](=O)[O-],21.2%
21,CCN(CC)c1ccc(/C=C2/C(=O)N(c3ccc([N+](=O)[O-])cc3)N=C2N2CCOCC2)cc1,7.67%
22,NC(=O)c1ccc(NC(=O)c2ccc3c(c2)OCO3)cc1,-2.25%

row,SMILES,"hERG current change (%, negative = inhibition) at 1uM"
1,CCOC(=O)N1CCN(C(=O)CCNS(=O)(=O)c2cc(Br)cnc2N)CC1,10.6%
2,C=CCn1c(SCC(=O)NC(C)(C)C)nnc1-c1ccccc1O,-4.13%
3,Cc1ccc(-c2nc3ccccc3c(=O)n2CCCN2CCOCC2)cc1,8.79%
4,CC(=O)Oc1cc(OC(C)=O)c2c(=O)c(-c3ccc4c(c3)OCCCO4)c(C)oc2c1,10.9%
5,O=C(CN1C(=O)NC2(CCCc3ccccc32)C1=O)NCc1ccco1 (stereo not drawn),15.9%
6,O=C(NNC1=NCCCCC1)c1ccccc1,11%
7,CCCCn1nc2cc(C(=O)NCc3ccccc3OC)ccc2c1OCC,-12.4%
8,Cc1ccc(-n2nc3c(c2NC(=O)c2ccco2)CS(=O)C3)c(C)c1 (stereo not drawn),2.16%
9,CCOC(=O)c1c(C)[nH]c(C(=O)O)c1C,11.5%
10,CC1=CC(C)(C)N=C(NC#N)N1,7.76%
11,CCCCc1nnc(NC(=O)CSc2nc(C)cc(=O)[nH]2)s1,-2.64%
12,OCCCn1c(C2CCCN2c2nc(-c3ccc(Cl)cc3)cs2)nc2cc(Cl)c(Cl)cc21 (stereo not drawn),-15.5%
13,S=c1[nH]nc(Nc2ccccc2Cl)s1,10.5%
14,CC(C)c1nc(SCC(=O)Nc2c[nH]c(=O)[nH]c2=O)c2cnn(-c3ccccc3)c2n1,7.46%
15,COc1ccc(C(=O)Nc2cccc(-c3ccc4nncn4n3)c2)cc1OC,16.1%
16,CN(Cc1c(F)cccc1Cl)C(=O)CNC(=O)c1cccs1,-0.787%
17,Cc1cc(C(C)(C)C)cc(C)c1CCNC(=O)c1ccc[n+]([O-])c1,9.13%
18,CCCCOc1ccc(C2(C)NC(=O)NC2=O)cc1 (stereo not drawn),-1.45%
19,NS(=O)(=O)c1ccc(CCNC(=O)c2cc(-c3ccco3)nc3ccccc23)cc1,-8.77%
20,Cc1cccc(C)c1NC(=O)CNC(=O)CCCc1c[nH]c2ccccc12,-9.02%
21,O=C1N[C@@H](Cc2ccccc2)C(=O)N2[C@H]1C[C@]1(Br)c3ccccc3N(S(=O)(=O)c3ccccc3)[C@H]21,10.8%
22,COc1ccc(C(=O)C2CCCN(C(=O)CCc3scnc3C)C2)c(C)c1 (stereo not drawn),3.18%

row,SMILES,"hERG current change (%, negative = inhibition) at 1uM"
1,COc1ccccc1C(=O)COC(=O)C(CCSC)NC(=O)COc1ccccc1 (stereo not drawn),13.7%
2,CCOC(=O)c1ccc(CSc2n[nH]c(C)n2)o1,6.09%
3,CCOCCCNC(=O)c1cc(Sc2ccc(F)cc2)nc2ccccc12,1.22%
4,Cc1ccc(Cn2nnc3c(=O)[nH]c(C4CCN(S(=O)(=O)c5cc(C)ccc5C)CC4)nc32)cc1,17.6%
5,CN(C(=O)c1sc2nc(N3CCCC3)c3c(c2c1N)CC(C)(C)OC3)c1ccccc1,-3.88%
6,CCCCC(C)C(OC(=O)CC(CC(=O)O)C(=O)O)C(CC(C)CC(O)CCCCC(O)CC(O)C(C)N)OC(=O)CC(CC(=O)O)C(=O)O (stereo not drawn),7.36%
7,Cc1ccc(-c2ccc(CCC(=O)O)n2NC(=O)c2cccs2)cc1,4.46%
8,COCCn1c(SCC(=O)Nc2cc(C)on2)nc2c(c1=O)SCC2,13.2%
9,COc1ccc(OC)c(S(=O)(=O)N2CCCC(C(=O)NCc3cccnc3)C2)c1 (stereo not drawn),10.1%
10,CCCc1cc(C(=O)OC)c(NC(=O)CCCC(=O)O)s1,15.5%
11,O=C(CN(c1ccccc1)S(=O)(=O)c1ccccc1)N1CCOCC1,11.9%
12,COCCCNC(NC(=O)c1ccc(OC)cc1)C(Cl)(Cl)Cl (stereo not drawn),8.74%
13,CCOC(=O)c1c(C)[nH]c(C)c1S(=O)(=O)NCC1CCN(Cc2cccc(Cl)c2)CC1,18.2%
14,COc1ccc2c(c1)[C@H]1[C@H](CO2)[C@H](c2ccccc2)[C@]2(C)C(=O)N[C@H](C)C(=O)N12,9.68%
15,O=c1cc2[nH]c3ccccc3c(=O)n2nc1-c1ccccc1,8.8%
16,c1ccc2c(N3CCCCCC3)nc(-c3ccncc3)nc2c1,9.47%
17,Cc1cc(C)c(C#N)c(SCC(=O)C(C)(C)C)n1,9.45%
18,CCN1C(=O)[C@H]2[C@@H](c3ccc(OC)cc3)N3C(=O)CN(CCOC)C(=O)[C@@]3(C)[C@H]2C1=O,8.61%
19,COC(=O)c1c2c(nc3ccccc13)CCC2,-7.16%
20,Cc1ccccc1CNc1nc(N)n(-c2ccccc2)n1.Cl,7.7%
21,O=C(Cn1cc(SCc2ccc(Cl)cc2)c2ccccc21)N1CCOCC1,12.8%
